The values below come from the supplement of paper PMC11417369.

± gives the standard deviation of the averaged measurements. Some of the results follow.

The assay concerns PfAP2-EXP AP2 domain (GST-tagged). The assay can be described thus: gcPBM binding intensity (ln(normalized median fluorescence intensity)); higher = stronger DNA binding. Put shortly:
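Binding intensity values are the highest Masliner-normalised natural-log median intensity among replicate spots of either probe orientation. The binding step lasted 1 h in 1× PBS with 1% milk, 0.2 mg/ml BSA, 0.5% salmon testes DNA and 0.03% Triton X-100, using GST-tagged P. falciparum DNA-binding domains expressed in E. coli on an Agilent 4 × 180k array of primer-extended double-stranded 36-bp intergenic genomic probes plus negative controls. Alexa488 anti-GST antibody and a 488 nm scan detected bound protein.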
“TATTTGTTTTTATATAGTACATAAATATATATATAT [XGTACX_site7834]”: the “gcPBM binding intensity (ln)” value turned out to be 9.65 ± 0.28. Take “AAAATAAATATGAACACACACATTTATGCCTTTAAA [CACACA_site1271]”: the “gcPBM binding intensity (ln)” value was determined as 8.21 ± 0.29. The result for “AAAAAATAAATAAATACACACACACTAATATATATA [CACACA_site8488]” reads 8.96 ± 0.28; that for “AGAGATATAAGAAAAGCACACACACCCAAAAAAAAA [CACACA_site8917]”, 8.82 ± 0.56; that for “TATATACAAAAAATATGTACATATATATATATATAT [XGTACX_site3497]”, 10.1 ± 0.33.

Regarding ATTATTTATATTATGGTGCATAATTTTGGGTTTCTT, the “gcPBM binding intensity (ln)” value was determined as 8.86 ± 0.26. Take “CCCACAAAGGAATATACACACATATATATATATATA [CACACA_site4091]”: the “gcPBM binding intensity (ln)” value stood at 10.2 ± 0.13. As for “TAAATATTTTTTTAGACACACATATATCTATGATAT [CACACA_site1107]”, the figure is 8.22 ± 0.4; as for “TTGAAAATGAAAAAATGTACTTAAAAAAAAGGAACA [XGTACX_site8664]”, 8.74 ± 0.45. As for “TCTTTGAATTTTTTAACACACACATGGGTGGATATA [CACACA_site8474]”, the figure is 8.43 ± 0.39; as for “ATAAAATTGTATAACTGTACATATATATATATATAT [XGTACX_site5596]”, 10.1 ± 0.3. As for “ATACATATATACATATGTACATATATATATATATAT [XGTACX_site8206]”, the figure is 9.9 ± 0.39. On to “AAAAAAATAATTTGTAGTACGATTCAATGAAAAGGC [XGTACX_site1287]”, for which the “gcPBM binding intensity (ln)” value came to 8.84 ± 0.38. As for “GGATATAACAGACACACACACACATATAAATATATT [CACACA_site7866]”, the figure is 8.68 ± 0.51; as for “TTTTTTCTTAAAGACATATATTTATTTGGTAAAACA [XGTACX_negctrl_site243]”, 8.11 ± 0.42; as for “ATGCTATATTAAAAACGTACAAACTGTTTAGAAAAA [XGTACX_site8943]”, 8.49 ± 0.33. The result for “CAAAATAAAAATTAATGTACATAAAAAATGAATATA [XGTACX_site1085]” reads 8.79 ± 0.35. As for “TATTTACATTTATGTGCACACATTCCATTTGAAAGT [CACACA_site1954]”, the figure is 8.9 ± 0.071. For “AATAGAAAAAAAAAATGTACACATATAAAAGCATAT [XGTACX_site6306]”, the “gcPBM binding intensity (ln)” value turned out to be 8.87 ± 0.45.

With “CGGACATACATAGGAACATGCAAAATTTTTTATTTT [TGCATGCA_site575]”, the “gcPBM binding intensity (ln)” value amounted to 8.65 ± 0.44. On to “TATTTTCTTTTTCTTGTACACACATAATATGGATGA [CACACA_site8168]”, for which the “gcPBM binding intensity (ln)” value amounted to 8.79 ± 0.39. As for “TTGTTATATTACAGTAGTACATTTAAAATCTACTAC [XGTACX_site2620]”, the figure is 8.56 ± 0.4. The result for “TTTTTTTTTTTTTTTTGTACGTAAAAAAATATATAC [XGTACX_site1290]” reads 8.36 ± 0.22. As for “AATATTTATACTATAACACACATACAGACAAAAAAA [CACACA_site6396]”, the figure is 8.85 ± 0.4. For the sequence “TTACATTATATACATACACACCCACCCACAAAAAAA [CACACA_site8187]”, the “gcPBM binding intensity (ln)” value turned out to be 9.82 ± 0.69. Consider “ATTTTTATTTACAACCCCAAAAAGGAAAAACATAAA [CACACA_negctrl_site1169]”, for which the “gcPBM binding intensity (ln)” value stood at 8.86 ± 0.71. As for “ATAATATCATCAAACGCACACATACATAAATATATT [CACACA_site5230]”, the figure is 8.63 ± 0.39; as for “TATTTTTATAATATATGTACATATATATATATATTA [XGTACX_site5343]”, 8.38 ± 0.37. The result for “ACATATTATATGAATACACACAAAAACTTATCGGTA [CACACA_site3439]” reads 8.54 ± 0.39; that for “ACAGGAAAAAACAATTGTACATGTATATATATATAT [XGTACX_site7677]”, 10.1 ± 0.35; that for “ATATATATATATATATGTACATATTTTATTTGAAAT [XGTACX_site7411]”, 10.1 ± 0.38.

On to “GCATAATATACTCTTACACACCATTTCTAAATACAT [CACACA_site4912]”, for which the “gcPBM binding intensity (ln)” value amounted to 8.9 ± 0.48.

As for AAGACAATATATGCAGTGCATATACATACATATATA, the “gcPBM binding intensity (ln)” value worked out at 8.65 ± 0.25.

For the sequence “AAAAAAAAAAAAAAAAGTACGTATTTTTTTTAAAAT [XGTACX_site2654]”, the “gcPBM binding intensity (ln)” value stood at 8.79 ± 0.22. As for “TTCGTCTTTTTTCTCACACACCCTTTTTATTAAAAG [CACACA_site7225]”, the figure is 9.01 ± 0.59. The result for “AATAATATACCTCTTGTGCACATATTAAAAGTTCAT [GTGCAC_site9536]” reads 8.97 ± 0.22; that for “ATAATACAAAACACAAGTACATAAATTAAAAAGATG [XGTACX_site7839]”, 9.01 ± 0.4. AGAATTAAAATAAAGGTGCATTTTTTTGTTTCATGT: the “gcPBM binding intensity (ln)” value was determined as 8.82 ± 0.4.

With “AAAGAATACATATATTGTACATATATATATACCGTT [XGTACX_site6250]”, the “gcPBM binding intensity (ln)” value worked out at 8.74 ± 0.69. As for “AGTTATTTTATAGAATATGAATAATTTTACTTTTCA [XGTACX_negctrl_site403]”, the “gcPBM binding intensity (ln)” value is 7.97 ± 0.39.

Turning to “TTCATTCATTTTATTACACACAAAAAAAAAAAAAAA [CACACA_site3680]”, the “gcPBM binding intensity (ln)” value amounted to 8.05 ± 0.51.

Consider “AATTTCATTTTACTTATCTAATATTTATAATCTTTT [CACACA_negctrl_site636]”, for which the “gcPBM binding intensity (ln)” value amounted to 8.46 ± 0.42. For the sequence “AAAAAAAAAGGTACTACACACTATTCTCAATAGAAA [CACACA_site6193]”, the “gcPBM binding intensity (ln)” value came out at 8.4 ± 0.48.

On to “TTAGGATATTTATTTCGTACATATATTTTTAATTGT [XGTACX_site582]”, for which the “gcPBM binding intensity (ln)” value came out at 8.14 ± 0.41. The result for “AATTTTTATATAATTTAACACACATTTCATATAAAA [CACACA_site9018]” reads 8.35 ± 0.36.
